Measurements: PubChem BioAssay (NCI)
“And” between values parts separate entries of the source, which are not always exact repeats. Identical values can stand only once.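 Growth conditions: 96-well plates. Treatment: test compound, 48 hours, 5 concentrations. Analysis: linear interpolation between bracketing concentrations; unreached endpoints set to highest concentration. GI50 is the concentration that inhibits growth by half. TGI: total growth inhibition.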

test system: NCI-H322M lung; test: NCI tumour cell line growth inhibition, 48 h

**Q.** `O=c1oc2ccc([N+](=O)[O-])cc2c(Nc2ccc3c(c2)Oc2ccccc2O3)c1[N+](=O)[O-]` was tested. Which TGI did it give?
**A.** > 100 µM

**Q.** For `O=C1CCCC[C@H]1[C@H]1CCC[C@@H]([C@H]2CCCCC2=O)C1=O`, which TGI is on record?
**A.** > 100 µM

**Q.** Which TGI does the source give for `CSc1ncnc2c1ncn2CCC#N` here?
**A.** > 100 µM

**Q.** `C1C[OH+]CC[OH+]CC[OH+]CC[OH+]CC[OH+]1.[Cl-].[V]` was tested. Which GI50 did it give?
**A.** 35.6 µM

**Q.** What about the TGI of the same molecule?
**A.** > 100 µM

**Q.** `C#C[C@]1(O)CC[C@H]2[C@@H]3CCC4=C/C(=N/OC(=O)c5cccc6c(=O)c7ccccc7[nH]c56)CC[C@@H]4[C@H]3CC[C@@]21C` was tested. Which TGI did it give?
**A.** > 100 µM

**Q.** `C=CCOc1ccc(C2(O)c3ccccc3C3=NCCCN32)cc1` (centres undefined) was tested. Which TGI did it give?
**A.** > 100 µM

**Q.** For `COc1cc(/C=C(\C#N)c2ccccc2)cc(OC)c1`, which TGI is on record?
**A.** > 100 µM

**Q.** With `O=C(O)C1C(Br)(c2ccccc2)C1(Br)c1ccccc1` (centres undefined) as the molecule, how does the TGI read?
**A.** > 100 µM

**Q.** `CC1=C(C(=O)Nc2ccc(F)c(Cl)c2)C(c2cccc(O)c2)NC(=O)N1` (centres undefined) was tested. Which GI50 did it give?
**A.** 33.3 µM

**Q.** What about the TGI of the same molecule?
**A.** > 100 µM

**Q.** `COc1cc2c3c(c1OC)C1(C=CC(=O)C=C1)C[C@H]3N(C)CC2` was tested. Which TGI did it give?
**A.** > 100 µM

**Q.** How did the GI50 turn out when `COc1cc(/C=C/c2cc(/C=C/c3ccc(O)c(OC)c3)n(C(=O)Nc3ccc(C)cc3C)n2)ccc1O` was run?
**A.** 0.571 µM

**Q.** And the TGI?
**A.** 2.8 µM

**Q.** How did the TGI turn out when `CC(=O)OCC1OC(n2c3c(cc(C#N)c2=S)CCCCC3)C(OC(C)=O)C(OC(C)=O)C1OC(C)=O` (centres undefined) was run?
**A.** > 100 µM

**Q.** How did the TGI turn out when `O=C(c1ccccc1)C1OC12C(=O)Nc1ccccc12` (centres undefined) was run?
**A.** > 100 µM

**Q.** With `CC(=O)N[C@H]1CSSC[C@@H](C(N)=O)NC(=O)[C@H](C(C)C)NC(=O)[C@H](C)NC(=O)[C@H](Cc2cnc[nH]2)NC1=O` as the molecule, how does the GI50 read?
**A.** > 100 µM

**Q.** And the TGI?
**A.** > 100 µM

**Q.** `CN(C)C(=O)[C@H](O)[C@H](Cc1ccccc1)NC(=O)c1cc2cc(Cl)ccc2[nH]1` was tested. Which GI50 did it give?
**A.** 25.6 µM

**Q.** What about the TGI of the same molecule?
**A.** > 100 µM

**Q.** Which TGI does the source give for `Nc1ccc(S2(c3ccc(N)cc3)C=C(c3ccccc3)C(c3ccccc3)=C2)cc1` here?
**A.** > 100 µM

**Q.** Which TGI does the source give for `Cc1cc(S(=O)(=O)Nc2nc3cc(-c4ccc(Cl)cc4)sc3c(=O)n2N)c(S)cc1Cl` here?
**A.** > 100 µM

**Q.** With `C/C(CC(=O)NCCc1ccccc1)=N\NC(=O)C[n+]1ccccc1` as the molecule, how does the TGI read?
**A.** > 100 µM

**Q.** `CC1=C(O)C(=O)C=C2C1=CC=C1[C@@]2(C)CC[C@@]2(C)[C@@H]3C[C@](C)(C(=O)O)CC[C@]3(C)CC[C@]12C` was tested. Which TGI did it give?
**A.** 1.12 µM

**Q.** How did the TGI turn out when `CC(C)(C)c1cc(C(O)(C(F)(F)F)C(F)(F)F)c2c(c1)C(C(F)(F)F)(C(F)(F)F)OC(C(C)(C)C)N2` (centres undefined) was run?
**A.** 16.1 µM

**Q.** How did the TGI turn out when `CCN(CC)c1ccc(N=Nc2ccc(-c3nc4ccc[n+](C)c4s3)cc2)cc1` was run?
**A.** 26.7 µM

**Q.** `O=C1c2ccccc2C2(c3ccc(Cl)cc3)N[C@H]3CCCC[C@@H]3N12` (some centres undefined) was tested. Which TGI did it give?
**A.** > 100 µM

**Q.** `O=c1cccc(C#CC#CC2=CCCCC2)o1` was tested. Which GI50 did it give?
**A.** 17.8 µM

**Q.** And the TGI?
**A.** 33.4 µM

**Q.** For `CC(=O)C(=CN1CCN(C(=O)c2ccco2)C1=S)C(C)=O`, which GI50 is on record?
**A.** 4.68 µM

**Q.** What about the TGI of the same molecule?
**A.** 14.1 µM

**Q.** How did the TGI turn out when `CN1[C@@H]2C[C@@H](OC(=O)[C@H](CO)c3ccccc3)C[C@H]1[C@@H]1O[C@@H]12` was run?
**A.** > 100 µM

**Q.** With `S=C(Nc1ccc2c(c1)oc1ccccc12)c1cccnc1` as the molecule, how does the TGI read?
**A.** > 100 µM

**Q.** Which results are given for `CCSc1nc(SCC)c2cn[nH]c2n1`?
**A.** GI50: > 100 µM; TGI: > 100 µM

**Q.** Which TGI does the source give for `CC12CCC(O)CC1CCC1C2CCC2(C)C(C(=O)CC(O)C(F)(F)F)CCC12` (centres undefined) here?
**A.** > 73.6 µM

**Q.** For `O=C1Nc2ccc(F)cc2/C1=C/c1ccc[nH]1`, which GI50 is on record?
**A.** 19.5 µM

**Q.** What about the TGI of the same molecule?
**A.** > 25 µM

**Q.** Which TGI does the source give for `COc1ccc2cc(C(C)C(=O)N3CCOC3=O)ccc2c1` (centres undefined) here?
**A.** > 100 µM

**Q.** Which TGI does the source give for `N#CC1CC2(C1)OCCS2` (centres undefined) here?
**A.** > 100 µM

**Q.** For `Cc1[nH]c2ccccc2c(=O)c1CC=C(Cl)Cl`, which GI50 is on record?
**A.** > 100 µM

**Q.** What about the TGI of the same molecule?
**A.** > 100 µM

**Q.** Which TGI does the source give for `C=C1C(=O)OC2/C=C(\COC(C)=O)CCC(OC(C)=O)C3=CC(OC3=O)C12` (centres undefined) here?
**A.** 18.3 µM

**Q.** How did the TGI turn out when `COc1ccc(OC)c2c(C(=O)O)c(Cc3ccccc3)ccc12` was run?
**A.** > 100 µM

**Q.** Which GI50 does the source give for `Nc1ccc2cc3ccc(N)cc3nc2c1` here?
**A.** 0.633 µM

**Q.** And the TGI?
**A.** 6.77 µM [middle of 4 runs]

**Q.** For `CCOC(=O)NC(=O)c1cn(CCCOC(=O)CCCCCCCCCCC(=O)OCCCn2cc(C(=O)NC(=O)OCC)c(=O)[nH]c2=O)c(=O)[nH]c1=O`, which TGI is on record?
**A.** > 100 µM

**Q.** With `CC(C)C[C@H](NC(=O)/C=C/Cn1ccc2ccccc2c1=O)B(O)O` as the molecule, how does the GI50 read?
**A.** 77.3 µM

**Q.** What about the TGI of the same molecule?
**A.** > 100 µM

**Q.** `CC(C)(C[C@H]1CN(S(=O)(=O)c2cccc(C(F)(F)F)c2)c2cc(-c3cc(F)cc(OC(F)F)c3)ccc2O1)C(=O)O` was tested. Which GI50 did it give?
**A.** 12.2 µM

**Q.** What about the TGI of the same molecule?
**A.** 25 µM

**Q.** Which TGI does the source give for `CCN1CCC(O)(/C=C/c2ccc(C)cc2C)C(C(=O)/C=C/c2ccc(C)cc2C)C1` (centres undefined) here?
**A.** 10.8 µM

**Q.** What does the source list for `CN(C)c1cc[c]([Sn]([c]2ccc(N(C)C)cc2)([c]2ccc(N(C)C)cc2)[c]2ccc(N(C)C)cc2)cc1`?
**A.** GI50: 13.3 µM; TGI: 27.2 µM

**Q.** Which GI50 does the source give for `CCc1nc(C(N)=O)c(Nc2ccc(N3CCC(N4CCN(C)CC4)CC3)c(OC)c2)nc1NC1CCOCC1` here?
**A.** 0.857 µM and 0.289 µM and 1.43 µM

**Q.** And the TGI?
**A.** 20.7 µM and > 2.93 µM and 19.4 µM

**Q.** With `Cc1nc2sc3ccccc3n2c(=O)c1N=Nc1ccc(Cl)cc1` as the molecule, how does the TGI read?
**A.** > 100 µM

**Q.** How did the TGI turn out when `Oc1cccc(-c2nc3cc(F)ccc3s2)c1` was run?
**A.** 94.7 µM

**Q.** Which results are given for `COc1cccc2c(=O)c3c(sc12)c(N1CCNCC1)nc1ccccc13`?
**A.** GI50: 1.65 µM; TGI: 3.03 µM

**Q.** With `N#Cc1cccnc1Cl` as the molecule, how does the TGI read?
**A.** > 100 µM

**Q.** Which TGI does the source give for `Nc1ccc(C(=O)N2CCC[C@H]2CO)c(N)c1` here?
**A.** > 100 µM

**Q.** `C[C@]12CC[C@@H]3c4cc(OCC(F)(F)F)c(O)cc4/C(=N/O)C[C@H]3[C@@H]1CC[C@@H]2O` was tested. Which GI50 did it give?
**A.** 0.0748 µM

**Q.** What about the TGI of the same molecule?
**A.** 39.2 µM
